Results from the antibiotic and cytotoxicity screens of Wong et al. (2023).
This is one part of the list.

Legend:
HSkMC = human skeletal muscle cells; assay: cytotoxicity call (relative viability < 0.9); settings: 10 µM
HepG2 = assay: cytotoxicity call (relative viability < 0.9); settings: 10 µM
S. aureus RN4220 = assay: growth inhibition call (relative growth <= 0.2); settings: 50 µM

SMILES	cytotoxicity call (HSkMC)	cytotoxicity call (HepG2)	growth inhibition call (S. aureus RN4220)
C[C@@H]1CN([C@H](C)CO)C(=O)Cc2cc(NC(=O)Nc3ccccc3)ccc2O[C@H]1CN(C)Cc1ccc(Cl)c(Cl)c1	active	active	inactive
COc1ccc([Si](C)(C)[C@H]2[C@H](CC(=O)N(CCO)Cc3ccccc3)O[C@@]3(C(=O)N(C)c4c(Br)cc(C)cc43)[C@@H]2C)cc1	inactive	active	inactive
C[C@H](CO)N1C[C@H](C)[C@@H](CN(C)S(=O)(=O)c2cccs2)OCCCC[C@H](C)Oc2ccc(NC(=O)NC3CCCCC3)cc2C1=O	inactive	inactive	inactive
C[C@@H]1CN([C@@H](C)CO)C(=O)c2cc(Br)cnc2O[C@H]1CN(C)S(=O)(=O)c1ccc(F)cc1	inactive	inactive	inactive
C[C@H](CO)N1C[C@H](C)[C@H](CN(C)C(=O)c2cccc(F)c2)Oc2cc(C#CC3CC3)ccc2S1(=O)=O	inactive	inactive	inactive
C[C@@H]1CN([C@@H](C)CO)C(=O)CCCn2cc(nn2)CO[C@H]1CN(C)Cc1ccc(C(=O)Nc2ccccc2N)cc1	inactive	inactive	inactive
C[C@H]1CN([C@@H](C)CO)C(=O)c2cc(NC(=O)Nc3ccc(C(F)(F)F)cc3)ccc2O[C@H]1CN(C)Cc1ccc(-c2ccccc2)cc1	active	active	inactive
CO[C@H]1CN(C)C(=O)c2ccc(NC(C)=O)cc2OC[C@H](C)N(S(=O)(=O)c2cn(C)cn2)C[C@@H]1C	inactive	inactive	inactive
C[C@@H]1CCCCO[C@@H](CN(C)Cc2ccc(C(F)(F)F)cc2)[C@H](C)CN([C@@H](C)CO)C(=O)c2cc(NS(=O)(=O)c3ccc(F)cc3)ccc2O1	inactive	inactive	inactive
Cc1ccc(S(=O)(=O)N(C)C[C@@H]2Oc3ccc(NC(=O)CCN4CCOCC4)cc3C(=O)N([C@@H](C)CO)C[C@H]2C)cc1	inactive	inactive	inactive
Cc1cc(O)c(C(C)C)cc1Cl	inactive	inactive	inactive
C[C@@H]1CCCCO[C@H](CN(C)C(=O)Nc2ccc(C(F)(F)F)cc2)[C@H](C)CN([C@H](C)CO)C(=O)c2cc(NS(=O)(=O)c3ccc(F)cc3)ccc2O1	inactive	active	inactive
Cc1ccc(S(=O)(=O)Nc2ccc3c(c2)C(=O)N([C@H](C)CO)C[C@@H](C)[C@H](CN(C)C(=O)c2ccccc2)OCCCC[C@@H](C)O3)cc1	inactive	inactive	inactive
COc1cccc(S(=O)(=O)N[C@@H]2CC[C@@H](CCn3cc(-c4ccccc4OC)nn3)O[C@H]2CO)c1	inactive	inactive	inactive
CC(C)NC(=O)Nc1ccc2c(c1)C(=O)N([C@@H](C)CO)C[C@@H](C)[C@@H](CN(C)C(=O)Nc1ccccc1)OCCCC[C@H](C)O2	inactive	inactive	inactive
COc1ccccc1C(=O)Nc1ccc2c(c1)C(=O)N(C)[C@@H]1CC[C@@H](CC(=O)NCCc3ccncc3)O[C@@H]1CO2	inactive	inactive	inactive
COc1ccc(S(=O)(=O)N(C)C[C@@H]2Oc3ccc(NC(=O)CCCN(C)C)cc3CC(=O)N([C@H](C)CO)C[C@H]2C)cc1	inactive	inactive	inactive
C[C@@H]1CN([C@H](C)CO)S(=O)(=O)c2ccc(C#CCN(C)C)cc2O[C@@H]1CN(C)C(=O)c1ccccc1F	inactive	inactive	inactive
Cc1cc(-c2ccc(N=Nc3ccc4c(S(=O)(=O)[O-])cc(S(=O)(=O)[O-])c(N)c4c3O)c(C)c2)ccc1N=Nc1ccc2c(S(=O)(=O)[O-])cc(S(=O)(=O)[O-])c(N)c2c1O.[Na+].[Na+].[Na+].[Na+]	active	active	inactive
O=C(O)CCCCC1SCC2NC(=O)NC21 (centres undefined)	inactive	inactive	inactive
Cc1ccc(N2C[C@@H](N)CC2=O)cc1	inactive	inactive	inactive
Cc1noc(C)c1NC(=O)N(C)C[C@@H]1OCCCC[C@@H](C)Oc2ccc(NC(=O)Nc3ccc(C(F)(F)F)cc3)cc2C(=O)N([C@H](C)CO)C[C@H]1C	inactive	inactive	inactive
C[C@@H]1CN([C@@H](C)CO)C(=O)c2cc(NS(=O)(=O)c3ccc(Cl)cc3)ccc2O[C@H]1CN(C)Cc1ccc(Cl)c(Cl)c1	active	active	inactive
CNC1C(OC2C(OC3C(O)C(O)C(NC(=N)N)C(O)C3NC(=N)N)OC(C)C2(O)CO)OC(CO)C(O)C1O.O=S(=O)(O)O (centres undefined)	inactive	inactive	inactive
Cc1noc(C)c1NC(=O)Nc1ccc2c(c1)C(=O)N([C@H](C)CO)C[C@H](C)[C@H](CN(C)Cc1ccc(C(F)(F)F)cc1)O2	inactive	inactive	inactive
[N-]=[N+]=Nc1ccccc1C[C@@]1(C(=O)NC[C@@H](O)CO)N=C(c2ccc(OCCCO)cc2)O[C@@H]1c1ccccc1	inactive	inactive	inactive
C[C@@H]1CN([C@@H](C)CO)C(=O)CCCn2nncc2CO[C@@H]1CN(C)S(=O)(=O)c1ccc2ccccc2c1	inactive	inactive	inactive

SMILES	cytotoxicity call (HSkMC)	cytotoxicity call (HepG2)	growth inhibition call (S. aureus RN4220)
CC(=O)Nc1c(C)[nH]c2ncnn2c1=O	inactive	active	inactive
C[C@H]1CCCCO[C@@H](CN(C)C(=O)C2CCCCC2)[C@@H](C)CN([C@@H](C)CO)C(=O)c2cc(NC(=O)NC3CCCCC3)ccc2O1	inactive	inactive	inactive
CS(=O)(=O)Nc1ccc2c(c1)[C@H]1C[C@@H](CC(=O)NCc3ccc(-c4ccccc4)cc3)O[C@H](CO)[C@H]1O2	inactive	inactive	inactive
C[C@@H]1CCCCO[C@H](CN(C)S(=O)(=O)c2cn(C)cn2)[C@H](C)CN([C@H](C)CO)C(=O)c2cc(NS(=O)(=O)c3ccccc3)ccc2O1	inactive	inactive	inactive
C[C@H](CO)N1C[C@H](C)[C@@H](CN(C)Cc2ccc3c(c2)OCO3)Oc2ccc(NS(=O)(=O)c3cn(C)cn3)cc2C1=O	inactive	inactive	inactive
C[C@H](CO)N1C[C@H](C)[C@H](CN(C)Cc2ccc(F)cc2)Oc2cc(C#CCN(C)C)ccc2S1(=O)=O	inactive	active	inactive
Cc1noc(C)c1NC(=O)N(C)C[C@H]1Oc2ccc(NC(=O)c3ccncc3)cc2CC(=O)N([C@@H](C)CO)C[C@@H]1C	inactive	inactive	inactive
COCC(=O)N(C)C[C@H]1Oc2cc(C#CCN(C)C)ccc2S(=O)(=O)N([C@@H](C)CO)C[C@@H]1C	inactive	inactive	inactive
COc1cccc(S(=O)(=O)N[C@@H]2CC[C@H](CCn3cc(-c4ccccc4OC)nn3)O[C@H]2CO)c1	inactive	inactive	inactive
C[C@H](CO)N1C[C@H](C)[C@H](CN(C)Cc2ccc(-c3ccccc3)cc2)OCc2ccccc2-c2c(n(C)c3ccccc23)C1=O	active	inactive	inactive
C[C@H](CO)N1C[C@H](C)[C@@H](CN(C)S(=O)(=O)c2cn(C)cn2)Oc2ccc(NC(=O)CCN3CCOCC3)cc2C1=O	inactive	inactive	inactive
C[C@H](CO)N1C[C@H](C)[C@@H](CN(C)C(=O)Nc2ccc(C(F)(F)F)cc2)OCCCC[C@H](C)Oc2ccc(NC(=O)c3ccccc3)cc2C1=O	inactive	inactive	inactive
C/C=C/c1cnc2c(c1)C(=O)N([C@H](C)CO)C[C@@H](C)[C@H](CN(C)S(=O)(=O)c1ccc(OC)cc1)O2	inactive	inactive	inactive
C[C@H]1CN([C@@H](C)CO)S(=O)(=O)c2ccc(C#Cc3cccc(F)c3)cc2O[C@H]1CN(C)C(=O)CN1CCOCC1	inactive	inactive	inactive
C[C@H](CO)N1C[C@H](C)[C@H](CN(C)Cc2ccc(C(F)(F)F)cc2)Oc2ccc(NS(C)(=O)=O)cc2C1=O	inactive	inactive	inactive
CN1CCN(C(=O)C[C@@H]2CC[C@@H]3[C@H](COC[C@@H](O)CN3C(=O)Nc3cc(Cl)cc(Cl)c3)O2)CC1	inactive	inactive	inactive
Cc1ccc(S(=O)(=O)N2C[C@@H](O)COC[C@H]3O[C@H](CC(=O)NCc4cccc(Cl)c4)CC[C@@H]32)cc1	inactive	inactive	inactive
C[C@@H]1CN([C@H](C)CO)C(=O)c2cccc(NC(=O)c3ccc(-c4nccs4)cc3)c2O[C@@H]1CN(C)S(=O)(=O)c1ccc(Cl)cc1	inactive	inactive	inactive
CC1=C(C(=O)NCCCN2CCN(c3ccc(F)cc3)CC2)C2(CCN(Cc3ccccc3)CC2)OC1=O	inactive	inactive	inactive
CCOC(=O)[C@@H](N)[C@@H](O)c1ccccc1	inactive	inactive	inactive
C[C@@H]1CN([C@H](C)CO)C(=O)c2cc(NS(=O)(=O)c3cccs3)ccc2O[C@@H](C)CCCCO[C@@H]1CN(C)C(=O)c1ccccc1	inactive	inactive	inactive
C[C@H](CO)N1C[C@H](C)[C@H](CN(C)C(=O)Nc2ccc3c(c2)OCO3)Oc2ncc(Br)cc2C1=O	inactive	inactive	inactive
C[C@@H]1CCCCO[C@H](CN(C)S(=O)(=O)c2ccc(Cl)cc2)[C@@H](C)CN([C@H](C)CO)C(=O)c2cc(NS(=O)(=O)c3ccc(Cl)cc3)ccc2O1	inactive	inactive	inactive
C[C@@H]1CCCCO[C@H](CN(C)C(=O)Nc2ccc(C(F)(F)F)cc2)[C@H](C)CN([C@@H](C)CO)C(=O)c2cc(NC(=O)Nc3ccc(F)cc3)ccc2O1	inactive	inactive	inactive
C[C@@H]1CCCCO[C@@H](CN(C)C(=O)Nc2ccc3c(c2)OCO3)[C@@H](C)CN([C@H](C)CO)C(=O)c2cc(NC(=O)Nc3cccc4ccccc34)ccc2O1	inactive	inactive	inactive
COc1ccc(NC(=O)N(C)C[C@@H]2Oc3c(NC(=O)C4CC4)cccc3C(=O)N([C@@H](C)CO)C[C@H]2C)cc1	inactive	inactive	inactive
